Assay [1] deals with tomato late blight fungi (Phytophthora infestans). The class given is in vivo. The settings on record: tomato late blight, spray treatment of tomato plants.
Assay [2] relates to rice blast fungi (Magnaporthe grisea). Format: in vivo. The settings on record: rice blast, spray treatment of rice plants.
Assay [3] deals with cucumber anthracnose fungi (Colletotrichum orbiculare). Put plainly: Test Example H: cucumber anthracnose, spray treatment of cucumber plants. The settings on record: cucumber anthracnose, 250 ppm spray (2.5 ml/pot), 6 to 10 days after inoculation.

On to `COc1ccc(C)c(-n2cc(Cl)c(=O)c(Br)c2-c2c(F)cc(F)cc2F)c1` [Compound 228], for which, in assay [1], the “Test F control value” is reported as “L (L shows the control value of 50% or less)”. Further, the “Test A control value” in assay [2] is given as “H (H shows the control value of more than 50%)”. In addition, the “Test H control value” in assay [3] is on record as “H (H shows the control value of more than 50%)”.

Take `COc1ccc(C)c(-n2cc(Cl)c(=O)c(Cl)c2-c2c(F)cc(F)cc2F)c1` [Compound 229]: in assay [1], the “Test F control value” is on record as “L (L shows the control value of 50% or less)”. Also, in assay [2], the “Test A control value” is reported as “H (H shows the control value of more than 50%)”. Moreover, the “Test H control value” in assay [3] was “H (H shows the control value of more than 50%)”.

As to `Cc1ccc(Cl)cc1-n1cc(Br)c(=O)c(Cl)c1-c1c(F)cc(F)cc1F` [Compound 230], in assay [1], the “Test F control value” is on record as “L (L shows the control value of 50% or less)”. In addition, the “Test A control value” in assay [2] is on record as “H (H shows the control value of more than 50%)”. The “Test H control value” in assay [3] is recorded as “H (H shows the control value of more than 50%)”.

For the compound `CCc1c(-c2c(F)cc(F)cc2F)n(CC(C)C)cc(C)c1=O` [Compound 231], in assay [1], the “Test F control value” is “L (L shows the control value of 50% or less)”. Besides, the “Test A control value” in assay [2] is reported as “H (H shows the control value of more than 50%)”. The “Test H control value” in assay [3] is “H (H shows the control value of more than 50%)”.

As for `CCc1c(-c2c(F)cc(OC)cc2F)n(CC(C)C)cc(C)c1=O` [Compound 232], in assay [1], the “Test F control value” is reported as “L (L shows the control value of 50% or less)”. The “Test A control value” in assay [2] is “H (H shows the control value of more than 50%)”. Further, in assay [3], the “Test H control value” is on record as “H (H shows the control value of more than 50%)”.

For `CCCCn1cc(Br)c(=O)c(Cl)c1-c1c(F)cc(F)cc1F` [Compound 233], the “Test F control value” in assay [1] was “L (L shows the control value of 50% or less)”. Moreover, in assay [2], the “Test A control value” is listed as “H (H shows the control value of more than 50%)”. Moreover, the “Test H control value” in assay [3] was “H (H shows the control value of more than 50%)”.

Take `CCCCn1cc(Br)c(=O)c(Br)c1-c1c(F)cc(F)cc1F` [Compound 234]: the “Test F control value” in assay [1] was “L (L shows the control value of 50% or less)”. The “Test A control value” in assay [2] is “H (H shows the control value of more than 50%)”. Further, the “Test H control value” in assay [3] was “L (L shows the control value of 50% or less)”.

As to `Cc1ccccc1-n1cc(Br)c(=O)c(Cl)c1-c1ccc(F)cc1` [Compound 235], in assay [1], the “Test F control value” was “L (L shows the control value of 50% or less)”. The “Test A control value” in assay [2] is “H (H shows the control value of more than 50%)”. In assay [3], the “Test H control value” is on record as “H (H shows the control value of more than 50%)”.

`Cc1ccccc1-n1cc(Br)c(=O)c(Br)c1-c1ccc(F)cc1` [Compound 236]: the “Test F control value” in assay [1] is on record as “L (L shows the control value of 50% or less)”. Further, in assay [2], the “Test A control value” was “H (H shows the control value of more than 50%)”. For the same compound, in assay [3], the “Test H control value” is recorded as “H (H shows the control value of more than 50%)”.

With `Cc1ccccc1-n1cc(Br)c(=O)c(Cl)c1-c1ccc(C#N)cc1` [Compound 237], in assay [1], the “Test F control value” is “L (L shows the control value of 50% or less)”. The “Test A control value” in assay [2] is reported as “H (H shows the control value of more than 50%)”. The “Test H control value” in assay [3] was “L (L shows the control value of 50% or less)”.

`Cc1ccccc1-n1cc(Br)c(=O)c(Br)c1-c1ccc(C#N)cc1` [Compound 238]: the “Test F control value” in assay [1] is on record as “L (L shows the control value of 50% or less)”. In addition, the “Test A control value” in assay [2] is listed as “H (H shows the control value of more than 50%)”. Moreover, the “Test H control value” in assay [3] is recorded as “L (L shows the control value of 50% or less)”.

Take `Cc1ccc(Cl)cc1-n1cc(Br)c(=O)c(Br)c1-c1c(F)cc(F)cc1F` [Compound 239]: the “Test F control value” in assay [1] is on record as “L (L shows the control value of 50% or less)”. The “Test A control value” in assay [2] is recorded as “H (H shows the control value of more than 50%)”. Moreover, the “Test H control value” in assay [3] is on record as “H (H shows the control value of more than 50%)”.

On to `Cc1ccc(Cl)cc1-n1cc(Cl)c(=O)c(Br)c1-c1c(F)cc(F)cc1F` [Compound 240], for which the “Test F control value” in assay [1] is reported as “L (L shows the control value of 50% or less)”. Also, the “Test A control value” in assay [2] is “H (H shows the control value of more than 50%)”. Moreover, in assay [3], the “Test H control value” is on record as “H (H shows the control value of more than 50%)”.

`Cc1ccc(Cl)cc1-n1cc(Cl)c(=O)c(Cl)c1-c1c(F)cc(F)cc1F` [Compound 241]: in assay [1], the “Test F control value” was “L (L shows the control value of 50% or less)”. The “Test A control value” in assay [2] is on record as “H (H shows the control value of more than 50%)”. Besides, the “Test H control value” in assay [3] was “H (H shows the control value of more than 50%)”.

Consider `COc1ccc(-c2c(C)c(=O)c(C)cn2-c2ccccc2C)cc1` [Compound 242], for which the “Test F control value” in assay [1] was “H (H shows the control value of more than 50%)”. Further, in assay [2], the “Test A control value” is given as “H (H shows the control value of more than 50%)”. The “Test H control value” in assay [3] is given as “H (H shows the control value of more than 50%)”.

For the compound `COC(=O)c1ccc(-c2c(C)c(=O)c(C)cn2-c2ccccc2C)cc1` [Compound 243], in assay [1], the “Test F control value” was “L (L shows the control value of 50% or less)”. In assay [2], the “Test A control value” is “L (L shows the control value of 50% or less)”. Also, in assay [3], the “Test H control value” is “L (L shows the control value of 50% or less)”.

`Cc1ccccc1-n1cc(C)c(=O)c(C)c1-c1ccc(C(F)(F)F)cc1` [Compound 244]: the “Test F control value” in assay [1] is recorded as “L (L shows the control value of 50% or less)”. Besides, the “Test A control value” in assay [2] is “L (L shows the control value of 50% or less)”. Moreover, the “Test H control value” in assay [3] was “H (H shows the control value of more than 50%)”.

As to `Cc1cn(CC(C)C)c(-c2c(F)cc(F)cc2F)c(C)c1=O` [Compound 245], the “Test F control value” in assay [1] is reported as “L (L shows the control value of 50% or less)”. Moreover, the “Test A control value” in assay [2] is recorded as “H (H shows the control value of more than 50%)”. Also, in assay [3], the “Test H control value” is “H (H shows the control value of more than 50%)”.

`COc1ccc(Cn2cc(C)c(=O)c(C)c2-c2c(F)cc(F)cc2F)c(OC)c1` [Compound 246]: the “Test F control value” in assay [1] is given as “L (L shows the control value of 50% or less)”. In assay [2], the “Test A control value” is reported as “H (H shows the control value of more than 50%)”. The “Test H control value” in assay [3] is given as “L (L shows the control value of 50% or less)”.

Turning to `Cc1ccc(Br)cc1-n1cc(Br)c(=O)c(Cl)c1-c1c(F)cc(F)cc1F` [Compound 247], in assay [1], the “Test F control value” was “L (L shows the control value of 50% or less)”. Moreover, the “Test A control value” in assay [2] is recorded as “H (H shows the control value of more than 50%)”. For the same compound, in assay [3], the “Test H control value” is “H (H shows the control value of more than 50%)”.

For `Cc1ccc(Br)cc1-n1cc(Br)c(=O)c(Br)c1-c1c(F)cc(F)cc1F` [Compound 248], the “Test F control value” in assay [1] is listed as “L (L shows the control value of 50% or less)”. Also, the “Test A control value” in assay [2] is “H (H shows the control value of more than 50%)”. The “Test H control value” in assay [3] was “H (H shows the control value of more than 50%)”.

With `Cc1ccc(Br)cc1-n1cc(Cl)c(=O)c(Br)c1-c1c(F)cc(F)cc1F` [Compound 249], the “Test F control value” in assay [1] is on record as “L (L shows the control value of 50% or less)”. Moreover, the “Test A control value” in assay [2] is recorded as “H (H shows the control value of more than 50%)”. For the same compound, in assay [3], the “Test H control value” is on record as “H (H shows the control value of more than 50%)”.

In the case of `Cc1ccc(Br)cc1-n1cc(Cl)c(=O)c(Cl)c1-c1c(F)cc(F)cc1F` [Compound 250], the “Test F control value” in assay [1] was “L (L shows the control value of 50% or less)”. For the same compound, the “Test A control value” in assay [2] is “H (H shows the control value of more than 50%)”. The “Test H control value” in assay [3] was “H (H shows the control value of more than 50%)”.

Regarding `Cc1ccccc1-n1cc(C)c(=O)c(C)c1-c1c(F)cncc1F` [Compound 251], in assay [1], the “Test F control value” is “L (L shows the control value of 50% or less)”. Moreover, the “Test A control value” in assay [2] is “H (H shows the control value of more than 50%)”. Also, in assay [3], the “Test H control value” is “H (H shows the control value of more than 50%)”.

With `Cc1ccccc1-n1cc(C)c(=O)c(C)c1-c1c(Cl)cncc1Cl` [Compound 252], the “Test F control value” in assay [1] was “L (L shows the control value of 50% or less)”. In addition, in assay [2], the “Test A control value” is reported as “H (H shows the control value of more than 50%)”. Further, the “Test H control value” in assay [3] was “H (H shows the control value of more than 50%)”.

For the compound `Cc1ccccc1-n1cc(C)c(=O)c(C)c1-c1ccccc1` [Compound 253], in assay [1], the “Test F control value” was “L (L shows the control value of 50% or less)”. In assay [2], the “Test A control value” is “L (L shows the control value of 50% or less)”. The “Test H control value” in assay [3] was “L (L shows the control value of 50% or less)”.

As to `CSc1ccc(-c2c(C)c(=O)c(C)cn2-c2ccccc2C)cc1` [Compound 254], the “Test F control value” in assay [1] was “L (L shows the control value of 50% or less)”. In addition, the “Test A control value” in assay [2] was “L (L shows the control value of 50% or less)”. In addition, the “Test H control value” in assay [3] is given as “L (L shows the control value of 50% or less)”.

On to `Cc1cn(CC#N)c(-c2c(F)cc(F)cc2F)c(C)c1=O` [Compound 255], for which the “Test F control value” in assay [1] was “L (L shows the control value of 50% or less)”. The “Test A control value” in assay [2] is on record as “L (L shows the control value of 50% or less)”. Moreover, the “Test H control value” in assay [3] was “L (L shows the control value of 50% or less)”.

On to `Cc1ccc(-n2cc(Br)c(=O)c(Cl)c2-c2c(F)cc(F)cc2F)c(C)c1` [Compound 256], for which the “Test F control value” in assay [1] is reported as “L (L shows the control value of 50% or less)”. Moreover, in assay [2], the “Test A control value” is recorded as “H (H shows the control value of more than 50%)”. Also, in assay [3], the “Test H control value” is given as “H (H shows the control value of more than 50%)”.

The record behind these values is patent publication US11000038B2, “Pyridone compounds and agricultural and horticultural fungicides containing the same as active ingredients” (priority 2017, dated 2021).
